Reference: the supplement of paper PMC4967469
pIC50: −log10 of the molar value. By IC50 is meant the dose at which the fit gives 50% viability; fits outside the tested doses are given as limits. AUC sums up the same curve from the lowest dose to the 256-fold higher top dose; it is 1 without any effect and falls as sensitivity rises. For part of these data: An inferred top dose was calculated from the reported fits.

Legend:
Experiment in all cases: Viability of human cancer cell lines after 72 h of drug (GDSC screen)
SN-38 = compound: CCc1c2c(nc3ccc(O)cc13)-c1cc3c(c(=O)n1C2)COC(=O)[C@]3(O)CC [SN-38]; conditions: top dose 0.05 µM; top dose inferred
Method: (§1)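 Human cancer cell lines in 384-well plates, medium with 10% serum, drug for 72 h over a 256-fold dose range (nine 2-fold or five 4-fold steps up to the top dose). Adherent lines were fixed and stained with the nucleic acid dye Syto60, suspension lines read with resazurin; signal relative to control wells, capped at 0 and 100%. One two-parameter sigmoid per drug and line, fitted in a mixed model over all curves with the slope shared within a line.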

Axitinib = compound: CNC(=O)c1ccccc1Sc1ccc2c(/C=C/c3ccccn3)n[nH]c2c1 [Axitinib]; conditions: top dose 2 µM
Method: as §1

Methotrexate = compound: CN(Cc1cnc2nc(N)nc(N)c2n1)c1ccc(C(=O)N[C@@H](CCC(=O)O)C(=O)O)cc1 [Methotrexate]; conditions: top dose 0.2 µM
Method: as §1

Dabrafenib = compound: CC(C)(C)c1nc(-c2cccc(NS(=O)(=O)c3c(F)cccc3F)c2F)c(-c2ccnc(N)n2)s1 [Dabrafenib]; conditions: top dose 10 µM
Method: as §1

Vorinostat = compound: O=C(CCCCCCC(=O)Nc1ccccc1)NO [Vorinostat]; conditions: top dose 10 µM
Method: as §1

| Cell Line | AUC (SN-38) | pIC50 (SN-38) | AUC (Axitinib) | pIC50 (Axitinib) | AUC (Methotrexate) | pIC50 (Methotrexate) | AUC (Dabrafenib) | pIC50 (Dabrafenib) | AUC (Vorinostat) | pIC50 (Vorinostat) |
| --- | --- | --- | --- | --- | --- | --- | --- | --- | --- | --- |
| SUP-M2 (anaplastic large cell lymphoma, suspension) | 0.294 | 9.01 | 0.834 | 6.05 | 0.306 | 8.38 | 0.987 | < 5.00 | – | – |
| SUP-T1 (T-cell lymphoblastic leukaemia, suspension) | 0.401 | 8.76 | 0.979 | < 5.70 | 0.968 | < 6.70 | 0.985 | < 5.00 | – | – |
| SW756 (cervix, adherent) | 0.408 | 8.78 | – | – | 0.984 | < 6.70 | 0.977 | < 5.00 | 0.761 | 5.38 |
| SW948 (large intestine, adherent) | 0.579 | 8.24 | 0.959 | < 5.70 | 0.982 | < 6.70 | 0.98 | < 5.00 | – | – |
| SW1271 (small cell lung carcinoma, adherent) | 0.721 | 7.83 | 0.953 | < 5.70 | 0.971 | < 6.70 | 0.905 | < 5.00 | – | – |
| SW1990 (pancreas, adherent) | 0.65 | 8.05 | 0.965 | < 5.70 | 0.985 | < 6.70 | 0.979 | < 5.00 | – | – |
| Saos-2 (osteosarcoma, adherent) | 0.633 | 8.07 | – | – | 0.93 | < 6.70 | 0.978 | < 5.00 | 0.817 | 5.05 |
| SiHa (cervix, adherent) | 0.783 | 7.61 | 0.945 | < 5.70 | 0.985 | < 6.70 | 0.983 | < 5.00 | – | – |
| T84 (large intestine, adherent) | 0.875 | < 7.30 | 0.989 | < 5.70 | 0.988 | < 6.70 | 0.983 | < 5.00 | – | – |
| T98G (glioma, adherent) | 0.691 | 7.99 | 0.947 | < 5.70 | 0.988 | < 6.70 | 0.987 | < 5.00 | – | – |
| TE-1 (oesophagus, adherent) | 0.702 | 7.87 | 0.941 | < 5.70 | 0.878 | < 6.70 | 0.899 | < 5.00 | – | – |
| U-266 (myeloma, semi-adherent) | 0.921 | < 7.30 | 0.983 | < 5.70 | 0.959 | < 6.70 | 0.865 | < 5.00 | – | – |
| UACC-893 (breast, adherent) | 0.808 | 7.43 | 0.975 | < 5.70 | 0.927 | < 6.70 | 0.98 | < 5.00 | – | – |
| VCaP (prostate, adherent) | 0.869 | 7.31 | 0.985 | < 5.70 | 0.979 | < 6.70 | 0.92 | < 5.00 | – | – |
| WSU-DLCL2 (B-cell lymphoma, suspension) | 0.625 | 8.19 | 0.991 | < 5.70 | 0.548 | 7.78 | 0.984 | < 5.00 | – | – |
